Over roughly 110,000 compounds, “z-score” has its median near -0.1; the highest 2% begin near 2. This is one part of the list.
Each molecule was assayed against Metabotropic glutamate receptor 8 (Rattus norvegicus) (UniProt P70579) (assay: rat mGluR8 modulators via GIRK flux, primary screen, cell-based, thallium flux, HTS (AID 488969)). Details: HEK293 rat mGluR8, GIRK (G protein-gated inwardly rectifying potassium channel) thallium flux, FluoZin2; at 10 µM; stronger effect = higher value; submaximal glutamate (EC20) added with thallium.
Sequence of UniProt P70579 (P70579 whole entry, looked up): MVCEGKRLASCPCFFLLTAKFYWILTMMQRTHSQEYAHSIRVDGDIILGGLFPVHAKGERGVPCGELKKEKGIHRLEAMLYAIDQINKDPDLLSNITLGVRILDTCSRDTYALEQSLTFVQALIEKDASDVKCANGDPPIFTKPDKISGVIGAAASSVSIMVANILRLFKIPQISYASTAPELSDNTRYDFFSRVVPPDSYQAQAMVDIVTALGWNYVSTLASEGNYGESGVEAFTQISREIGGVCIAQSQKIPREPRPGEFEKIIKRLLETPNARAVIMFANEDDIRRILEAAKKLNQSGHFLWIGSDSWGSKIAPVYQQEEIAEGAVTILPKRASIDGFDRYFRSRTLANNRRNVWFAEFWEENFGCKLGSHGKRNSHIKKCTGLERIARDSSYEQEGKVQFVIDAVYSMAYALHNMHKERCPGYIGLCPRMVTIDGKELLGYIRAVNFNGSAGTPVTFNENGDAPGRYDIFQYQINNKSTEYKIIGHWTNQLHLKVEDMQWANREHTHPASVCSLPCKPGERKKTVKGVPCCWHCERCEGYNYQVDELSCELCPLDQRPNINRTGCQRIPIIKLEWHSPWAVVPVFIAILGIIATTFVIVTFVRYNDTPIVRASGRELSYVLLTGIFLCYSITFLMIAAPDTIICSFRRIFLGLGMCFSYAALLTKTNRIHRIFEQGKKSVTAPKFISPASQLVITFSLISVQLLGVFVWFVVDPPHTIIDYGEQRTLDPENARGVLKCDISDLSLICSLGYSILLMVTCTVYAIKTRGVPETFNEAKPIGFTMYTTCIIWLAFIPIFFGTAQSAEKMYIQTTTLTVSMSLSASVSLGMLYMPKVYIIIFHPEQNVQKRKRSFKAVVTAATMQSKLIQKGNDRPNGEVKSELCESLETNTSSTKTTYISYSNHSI

Compound | z-score
CCOC(=O)c1c(C)n(CCNC(C)=O)c2ccc(OC)cc12 | 0.105
CC(C)(C)c1ccc(C(=O)NCC(=O)OCN2C(=O)c3ccccc3C2=O)cc1 | -0.892
O=C(O)c1cc(-c2ccc(N3CCOCC3)cc2)nn1-c1ccc(F)cc1 | -0.497
Cn1cc(-c2nnc(-c3ccccc3)o2)c2ccccc21 | 0.11
O=C(CSc1nnc(-c2ccc(OC(F)F)cc2)o1)NC(=O)NCc1ccco1 | -0.253
O=C(CN(Cc1cccs1)C(=O)CSc1nnc(COc2ccccc2)o1)NC1CCCC1 | 0.0368
CCN1CCN(S(=O)(=O)c2ccc3c(c2)OCCO3)CC1 | 0.28
COCCn1c(CN2CCN(c3ccc(OC)cc3)CC2)nc2c1c(=O)n(C)c(=O)n2C | -0.219
O=C1C2CC=CCC2C(=O)N1Cc1ccccc1Cl (stereo unspecified) | -0.35
CCOC(=O)C1=C(C)N=c2s/c(=C\c3cc(OC)c(OC)c(OC)c3)c(=O)n2C1/C=C/c1ccccc1 (stereo unspecified) | -0.0634
CC1CC1c1ccc(/C=C(\C#N)C(=O)Nc2ccc(Cl)cc2)o1 (stereo unspecified) | -0.332
O=C(O)CCC(=O)N1CCc2cc(S(=O)(=O)N3CC=C(c4ccccc4)CC3)ccc21 | -0.389
CC(NC(=O)c1cccs1)c1ccc2c(c1)OCO2 (stereo unspecified) | -0.00444
CCOC(=O)COc1c(OC)cc(Cl)cc1C1Nc2ccccc2C(=O)N1c1ccc(F)cc1 (stereo unspecified) | 0.0906
CCCCNC(=O)c1onc(CSc2ccccc2C)c1C(=O)O | 0.0157
COc1cccc(-n2nc(-c3ccnn3-c3ccccc3)c(=O)n(C)c2=O)c1 | -0.22
Cn1c(=O)cc(SCC(=O)NCc2cccnc2)c2ccccc21 | -0.245
O=C(COC(=O)CCc1ccc(S(=O)(=O)N2CCCCC2)cc1)Nc1cccc2ccccc12 | 0.0206
CC(=O)N1CC(c2ccccc2)C(c2ccc(Cl)cc2)=N1 (stereo unspecified) | -0.485
O=C(Nc1ccccc1)c1cc2ccccc2o1 | -0.224
CC1CCN(C(=O)c2ccc(SCc3ccccc3F)c([N+](=O)[O-])c2)CC1 | -0.84
COc1ccc(NC(=O)c2cc(OC)c(OC)c(OC)c2Br)cc1OC | -0.423

Compound | z-score
NC(=O)Cc1ccc(Nc2nnc(-c3ccc(O)cc3)c3ccccc23)cc1 | 0.207
C#CCn1c(=NC(=O)c2ccccc2[N+](=O)[O-])sc2cc(S(C)(=O)=O)ccc21 | -0.119
C/C(=N\NC(=O)c1nn(C)cc1Br)c1cccc(NC(=O)c2ccncc2)c1 | -0.176
O=C(CCN1C(=O)C2C3CCC(C3)C2C1=O)OCC(=O)c1cccc([N+](=O)[O-])c1 (stereo unspecified) | -0.207
COc1ccc(CCSc2nnc(C3CCCCC3)n2N)cc1 | 0.27
CN(C)N1C(=O)CC(NNC(=O)c2ccncc2)C1=O (stereo unspecified) | -0.284
CCC(=O)N(Cc1cc(=O)[nH]c2ccccc12)c1cccc(C)c1 | -0.236
Cc1nnc2ccc(N3CCCC3)nn12 | 0.216
Cc1cccc(NC(=S)NCc2ccncc2)c1C | 0.279
O=C(COC(=O)c1ccccc1C(=O)c1ccc(Cl)c([N+](=O)[O-])c1)NC1CCCCCC1 | 0.341
COc1cc(C)c(NC(=S)Nc2ccc(Cl)c(Cl)c2)cc1OC | 0.396
COc1cccc(N/C(SCc2ccccc2C)=C(/C#N)C(=O)NCc2cccs2)c1 | 0.0519
CCCCN1C(=O)C2(NNc3ccccc3O2)c2ccccc21 (stereo unspecified) | -0.39
Cc1ccc(SCCNS(C)(=O)=O)cc1 | -0.065
CCOC(=O)N1CCN(c2c(NCc3cccs3)c(=O)c2=O)CC1 | 0.0406
COc1ccc(C(=O)Nc2ccccc2C(=O)NC(Cc2ccc(O)cc2)C(=O)NNC(=O)c2ccccc2Cl)cc1 (stereo unspecified) | 0.251
COc1cc(NC(=O)c2cc([N+](=O)[O-])ccc2Br)ccc1NC(=O)c1ccco1 | -0.624
COc1cccc(N(C(=O)Cn2nnc(-c3ccc(C)cc3)n2)C(C(=O)NC(C)(C)C)c2c[nH]c3ccccc23)c1 (stereo unspecified) | -0.0351
O=C(O)c1cccc(Cn2c(Cl)c(/C=N/NC(=O)c3ccccc3)sc2=O)c1 | -0.0615
Cc1ccc(C)c(Nc2ccc(C(=O)NCCc3ccccc3)cn2)c1 | -0.78
COC(=O)c1ccc(/C=C/c2ccc3cccc(OC(C)=O)c3n2)cc1 | 0.152
Cc1cc(=O)oc(C)c1C(=O)N1CCCc2ccccc21 | -0.0623

Compound | z-score
Cc1cc(NC(=O)COc2ccc3oc4ccccc4c3c2)no1 | -0.195
CCOC(=O)c1c(C)[nH]c(C(=O)/C(C#N)=C/c2ccc(OCC)cc2)c1C | 0.023
CC(C)OC(=O)CSc1nc2ncccc2[nH]1 | -0.0946
CCOC(=O)C(NC(=O)CC)(Nc1sc2c(c1C(=O)OC)CCN(C)C2)C(F)(F)F (stereo unspecified) | 0.476
COc1ccccc1OCCCOc1c(C)cc(C)cc1Br | -0.185
Cc1cc2nc(-c3ccco3)cc(C(F)(F)F)n2n1 | 0.0437
O=C(Nc1ncc(Cc2ccccc2Cl)s1)c1ccc([N+](=O)[O-])cc1 | -0.264
COC(=O)c1ccc(/C=C(\C#N)C(=O)NC(C)c2ccccc2)cc1 (stereo unspecified) | -0.166
O=C(NCCCN1CCOCC1)c1ccc(CS(=O)(=O)c2cccc(C(F)(F)F)c2)o1 | 0.918
CCN(CC)c1cc2nc(C)n(Cc3ccccc3)c(=O)c2cc1NC(=O)C1CC1 | -2.33
COc1ccccc1NC(=O)Cc1coc2cc(C)ccc12 | -0.0264
CCOC(=O)c1c(NC(=O)OC)sc(C(=O)N(CC)CC)c1C | -0.0155
Cc1cc(-c2ccccc2)nc(N2CCC(C(=O)NCc3ccccc3Cl)CC2)n1 | -1.39
Cc1cccc(NS(=O)(=O)c2cccs2)n1 | 0.268
CCC(C)NS(=O)(=O)c1ccc(S(=O)(=O)N2CCCC3(CCCCC3)C2)cc1 (stereo unspecified) | 0.176
O=C(Oc1cncc(Cl)c1)c1ccco1 | -0.00701
Cc1cccc(OCc2nc(-c3cccnc3)no2)c1 | -0.172
CCOC(=O)C1(C)/C(=N/Nc2ccccc2)C(=O)C(=O)N1c1ccccc1 (stereo unspecified) | -0.468
Clc1ccc(-c2cn3nc4c(nc3n2)CCCC4)cc1 | 0.182
CCCNC(=O)c1cc(-c2ccco2)on1 | 0.696
CCOC(=O)CNS(=O)(=O)c1cc(-c2nnc(Nc3ccc4c(c3)OCO4)c3ccccc23)ccc1C | -0.622
COc1ccc(-c2csc(NC(=O)c3nc(-c4ccccc4)oc3C)n2)cc1 | 0.528

Compound | z-score
Cc1ccc(C(=O)OCC(=O)NCCC2=CCCCC2)s1 | -0.3
CCCc1cc(=O)oc2cc(OCc3cccc(OC)c3)c(Cl)cc12 | 0.508
COc1ccc(CCNS(=O)(=O)c2ccc3oc(C(=O)O)c(C)c3c2)cc1OC | -0.553
O=C(CN1C(=O)c2ccccc2S1(=O)=O)Nc1cccnc1 | 0.056
CC(C)CNc1nnnc2c1sc1nc(N3CCOCC3)c3c(c12)CC(C)(C)SC3 | -0.392
Cc1nc(SCC(=O)c2cc3ccccc3oc2=O)c(C#N)c(-c2ccccc2)c1C(=O)Nc1ccccc1 | -0.305
CCOc1ccc(NC(=O)C2CCCN(S(=O)(=O)c3cccc4nsnc34)C2)cc1 (stereo unspecified) | 0.0833
Cc1ccc([N+](=O)[O-])cc1N=C(c1ccc([N+](=O)[O-])cc1)N1CCOCC1 | -0.237
CCN=C1SC(CC(=O)NC(C)C)C(=O)N1CC (stereo unspecified) | -0.0724
N#C/C(=C/c1ccc(F)cc1)c1nc(CCN2C(=O)c3ccccc3C2=O)cs1 | 0.281
Cc1cccc2c(=O)c(C(=O)NCc3cccs3)c[nH]c12 | -0.208
CCOC(=O)c1cnc(SCC(=O)Nc2ccccc2C(=O)OC)nc1N | -2.55
COC(=O)c1cc2c(ccn2-c2ccc(F)cc2)n1Cc1cccc(OC)c1 | -0.401
COc1ccccc1N(CN1CCCC1=O)C(=O)c1ccccc1F | -0.699
CSc1nc2c(c(=O)n1C)SC(C)C2 (stereo unspecified) | -0.144
O=C(c1ccco1)N1CCN(C(=O)c2cccc3c2C(=O)N(Cc2cccnc2)C3)CC1 | -0.521
Cc1ccc(OCC(=O)NCCN2CCCC2)cc1 | -0.165
COc1ccc(-c2c3c(=O)n(C)c(=O)n(C)c3cn2Cc2ccccn2)cc1 | 0.696
CCn1c(C(C#N)/C(=N\S(=O)(=O)c2cccs2)c2ccccc2)nc2ccccc21 (stereo unspecified) | 0.0631
COc1cc(C(=O)OCC(=O)Nc2ccc(C(C)=O)cc2)ccc1OCC(=O)N1CCOCC1 | -0.145
CCOc1ccc(NC(=O)NCCCSC2CCCCC2)cc1 | 0.197
CCC(=O)Nc1ccc(/C(C)=N\NS(=O)(=O)c2ccc(C)cc2)cc1 | -0.00673

Compound | z-score
Cc1ccc(C(=O)COC(=O)c2cnccn2)cc1 | 1.02
CCC1(CC)Nc2ccccc2C(=O)N1c1ccc(NC(C)=O)cc1 | -0.149
O=C(CCN1CCCCC1)c1ccc2c(c1)OCO2 | 0.101
O=c1[nH]c(CN2CCN(Cc3ccc4c(c3)OCO4)CC2)nc2ccccc12 | -0.226
CCC(C)(C)C1CCC2(CC1)NC(=O)N(CC(=O)Nc1nc(-c3ccc(C)cc3)cs1)C2=O (stereo unspecified) | 0.0182
Clc1ccc(OCc2cc(-c3ccccc3)no2)c(Cl)c1 | -0.0969
O=C(Nc1ccc2c(c1)OCO2)C1CCN(Cc2cnn(-c3ccccc3)c2-n2cccc2)CC1 | -0.13
O=C(CCCn1c(=O)c2sccc2n(CC(=O)OCc2ccccc2)c1=O)NCc1ccco1 | -0.791
CC(C)CNc1ncnc2c1sc1nc(N3CCOCC3)c3c(c12)CC(C)(C)OC3 | -0.517
O=C(N/N=C/c1ccc(OC(=O)c2cccs2)cc1)c1cccc(F)c1 | -0.311
COC(=O)c1cc(CC(=O)c2ccc(O)cc2O)c(C)o1 | -0.571
CN(C)S(=O)(=O)c1cccc(C(=O)OCC(=O)Nc2sccc2C#N)c1 | -0.065
CC1CCCN(c2ccc(C(=O)OCn3nnc4ccccc4c3=O)cc2[N+](=O)[O-])C1 (stereo unspecified) | 0.0133
Cc1ccc(N2C(=O)C(Cl)=C(NCCO)C2=O)c(C)c1 | -0.324
NC(=S)NNc1cccc(Cl)c1 | 0.267
Cc1ccc(OC(=O)c2cccc(S(=O)(=O)N(C)C)c2)c(-n2nc3ccccc3n2)c1 | -0.273
Cc1ccc(Cl)cc1N1CCN(C(=O)Cc2ccc(-n3c(=O)[nH]c4ccsc4c3=O)cc2)CC1 | -0.665
CN(C)CCCOc1ccc2c(c1)Sc1ccccc1CC2=O | 1.52
